MIC of nasopharyngeal S. pneumoniae isolates by broth microdilution (range and time not stated); higher = less susceptible. No active / inactive call per row; the paper counts penicillin above 0.06 and amoxicillin above 0.5 mg/L as non-susceptible (EUCAST). The lowest value, 0.01, is taken as the floor ('<='); the source prints it plain. Penicillin G is assumed for 'penicillin'. Isolates are numbered anew. PBP alleles are the type numbers of penicillin-binding proteins 1a, 2b and 2x; equal numbers mean equal sequences.
Columns and labels:
penicillin G = compound: CC1(C)S[C@@H]2[C@H](NC(=O)Cc3ccccc3)C(=O)N2[C@H]1C(=O)O [penicillin G]; assay: Broth microdilution.
amoxicillin = compound: CC1(C)S[C@@H]2[C@H](NC(=O)[C@H](N)c3ccc(O)cc3)C(=O)N2[C@H]1C(=O)O [amoxicillin]; assay: Broth microdilution.

## Streptococcus pneumoniae isolate 142 (PBP alleles 1a 2b 2x: 2_0_3, serotype: 7C)
Penicillin G
  MIC: ≤ 0.01 µg/mL
amoxicillin
  MIC: ≤ 0.01 µg/mL

## Streptococcus pneumoniae isolate 143 (PBP alleles 1a 2b 2x: 0_0_2, serotype: 34)
Penicillin G
  MIC: ≤ 0.01 µg/mL
amoxicillin
  MIC: ≤ 0.01 µg/mL

## Streptococcus pneumoniae isolate 144 (PBP alleles 1a 2b 2x: 3_6_5, serotype: 8)
Penicillin G
  MIC: 0.03 µg/mL
amoxicillin
  MIC: ≤ 0.01 µg/mL

## Streptococcus pneumoniae isolate 145 (PBP alleles 1a 2b 2x: 0_0_0, serotype: 23B)
Penicillin G
  MIC: 0.03 µg/mL
amoxicillin
  MIC: 0.03 µg/mL

## Streptococcus pneumoniae isolate 146 (PBP alleles 1a 2b 2x: 78_0_0, serotype: Serogroup 24)
Penicillin G
  MIC: ≤ 0.01 µg/mL
amoxicillin
  MIC: ≤ 0.01 µg/mL

## Streptococcus pneumoniae isolate 147 (PBP alleles 1a 2b 2x: 0_0_0, serotype: 15A)
Penicillin G
  MIC: 0.03 µg/mL
amoxicillin
  MIC: 0.03 µg/mL

## Streptococcus pneumoniae isolate 148 (PBP alleles 1a 2b 2x: 0_0_2, serotype: 35B)
Penicillin G
  MIC: 0.03 µg/mL
amoxicillin
  MIC: ≤ 0.01 µg/mL

## Streptococcus pneumoniae isolate 149 (PBP alleles 1a 2b 2x: 0_6_2, serotype: 16F)
Penicillin G
  MIC: 0.03 µg/mL
amoxicillin
  MIC: 0.03 µg/mL

## Streptococcus pneumoniae isolate 150 (PBP alleles 1a 2b 2x: New_New_7, serotype: Non-typeable/NCC2a)
Penicillin G
  MIC: 2 µg/mL
amoxicillin
  MIC: 2 µg/mL

## Streptococcus pneumoniae isolate 151 (PBP alleles 1a 2b 2x: 0_0_0, serotype: 35B)
Penicillin G
  MIC: 0.03 µg/mL
amoxicillin
  MIC: 0.03 µg/mL

## Streptococcus pneumoniae isolate 152 (PBP alleles 1a 2b 2x: 2_6_0, serotype: 11A)
Penicillin G
  MIC: ≤ 0.01 µg/mL
amoxicillin
  MIC: ≤ 0.01 µg/mL

## Streptococcus pneumoniae isolate 153 (PBP alleles 1a 2b 2x: 2_6_0, serotype: 11A)
Penicillin G
  MIC: ≤ 0.01 µg/mL
amoxicillin
  MIC: ≤ 0.01 µg/mL

## Streptococcus pneumoniae isolate 154 (PBP alleles 1a 2b 2x: 1_2_2, serotype: 22F)
Penicillin G
  MIC: ≤ 0.01 µg/mL
amoxicillin
  MIC: ≤ 0.01 µg/mL

## Streptococcus pneumoniae isolate 155 (PBP alleles 1a 2b 2x: 1_2_2, serotype: 22F)
Penicillin G
  MIC: 0.03 µg/mL
amoxicillin
  MIC: ≤ 0.01 µg/mL

## Streptococcus pneumoniae isolate 156 (PBP alleles 1a 2b 2x: 2_0_0, serotype: 6E (06B))
Penicillin G
  MIC: ≤ 0.01 µg/mL
amoxicillin
  MIC: ≤ 0.01 µg/mL

## Streptococcus pneumoniae isolate 157 (PBP alleles 1a 2b 2x: 1_2_2, serotype: 22F)
Penicillin G
  MIC: 0.03 µg/mL
amoxicillin
  MIC: ≤ 0.01 µg/mL

## Streptococcus pneumoniae isolate 158 (PBP alleles 1a 2b 2x: 84_New_New, serotype: 15B/C)
Penicillin G
  MIC: 0.25 µg/mL
amoxicillin
  MIC: 0.25 µg/mL

## Streptococcus pneumoniae isolate 159 (PBP alleles 1a 2b 2x: 2_0_2, serotype: 15B/C)
Penicillin G
  MIC: 0.03 µg/mL
amoxicillin
  MIC: ≤ 0.01 µg/mL

## Streptococcus pneumoniae isolate 160 (PBP alleles 1a 2b 2x: 1_0_187, serotype: 19A)
Penicillin G
  MIC: 0.03 µg/mL
amoxicillin
  MIC: ≤ 0.01 µg/mL

## Streptococcus pneumoniae isolate 161 (PBP alleles 1a 2b 2x: 1_0_0, serotype: 15B/C)
Penicillin G
  MIC: ≤ 0.01 µg/mL
amoxicillin
  MIC: ≤ 0.01 µg/mL

## Streptococcus pneumoniae isolate 162 (PBP alleles 1a 2b 2x: 0_0_3, serotype: 35F)
Penicillin G
  MIC: 0.03 µg/mL
amoxicillin
  MIC: ≤ 0.01 µg/mL

## Streptococcus pneumoniae isolate 163 (PBP alleles 1a 2b 2x: 0_0_3, serotype: 15A)
Penicillin G
  MIC: 0.03 µg/mL
amoxicillin
  MIC: 0.03 µg/mL

## Streptococcus pneumoniae isolate 164 (PBP alleles 1a 2b 2x: 2_0_2, serotype: 21)
Penicillin G
  MIC: 0.03 µg/mL
amoxicillin
  MIC: ≤ 0.01 µg/mL

## Streptococcus pneumoniae isolate 165 (PBP alleles 1a 2b 2x: 7_1_1, serotype: 23B1)
Penicillin G
  MIC: 0.25 µg/mL
amoxicillin
  MIC: 0.06 µg/mL

## Streptococcus pneumoniae isolate 166 (PBP alleles 1a 2b 2x: 0_0_0, serotype: 19A)
Penicillin G
  MIC: 0.03 µg/mL
amoxicillin
  MIC: ≤ 0.01 µg/mL

## Streptococcus pneumoniae isolate 167 (PBP alleles 1a 2b 2x: 2_6_0, serotype: 11A)
Penicillin G
  MIC: ≤ 0.01 µg/mL
amoxicillin
  MIC: ≤ 0.01 µg/mL

## Streptococcus pneumoniae isolate 168 (PBP alleles 1a 2b 2x: 86_82_162, serotype: Non-typeable/NCC2a)
Penicillin G
  MIC: ≤ 0.01 µg/mL
amoxicillin
  MIC: ≤ 0.01 µg/mL

## Streptococcus pneumoniae isolate 169 (PBP alleles 1a 2b 2x: 2_0_2, serotype: 21)
Penicillin G
  MIC: 0.03 µg/mL
amoxicillin
  MIC: 0.03 µg/mL

## Streptococcus pneumoniae isolate 170 (PBP alleles 1a 2b 2x: 0_0_2, serotype: 21)
Penicillin G
  MIC: ≤ 0.01 µg/mL
amoxicillin
  MIC: ≤ 0.01 µg/mL

## Streptococcus pneumoniae isolate 171 (PBP alleles 1a 2b 2x: 23_27_77, serotype: 12F)
Penicillin G
  MIC: 0.125 µg/mL
amoxicillin
  MIC: 0.125 µg/mL

## Streptococcus pneumoniae isolate 172 (PBP alleles 1a 2b 2x: 2_3_2, serotype: 3)
Penicillin G
  MIC: 0.03 µg/mL
amoxicillin
  MIC: 0.03 µg/mL

## Streptococcus pneumoniae isolate 173 (PBP alleles 1a 2b 2x: 0_6_2, serotype: 16F)
Penicillin G
  MIC: 0.03 µg/mL
amoxicillin
  MIC: 0.03 µg/mL

## Streptococcus pneumoniae isolate 174 (PBP alleles 1a 2b 2x: 2_0_6, serotype: 23A)
Penicillin G
  MIC: 0.03 µg/mL
amoxicillin
  MIC: ≤ 0.01 µg/mL

## Streptococcus pneumoniae isolate 175 (PBP alleles 1a 2b 2x: 0_0_2, serotype: 35B)
Penicillin G
  MIC: 0.03 µg/mL
amoxicillin
  MIC: ≤ 0.01 µg/mL

## Streptococcus pneumoniae isolate 176 (PBP alleles 1a 2b 2x: 7_1_1, serotype: 23B1)
Penicillin G
  MIC: 0.25 µg/mL
amoxicillin
  MIC: 0.06 µg/mL

## Streptococcus pneumoniae isolate 177 (PBP alleles 1a 2b 2x: 0_0_2, serotype: 35B)
Penicillin G
  MIC: 0.03 µg/mL
amoxicillin
  MIC: 0.03 µg/mL

## Streptococcus pneumoniae isolate 178 (PBP alleles 1a 2b 2x: 25_69_56, serotype: Non-typeable/NCC2b)
Penicillin G
  MIC: 1 µg/mL
amoxicillin
  MIC: 1 µg/mL

## Streptococcus pneumoniae isolate 179 (PBP alleles 1a 2b 2x: 0_New_3, serotype: 35F)
Penicillin G
  MIC: ≤ 0.01 µg/mL
amoxicillin
  MIC: ≤ 0.01 µg/mL

## Streptococcus pneumoniae isolate 180 (PBP alleles 1a 2b 2x: 0_0_0, serotype: 35B)
Penicillin G
  MIC: 0.03 µg/mL
amoxicillin
  MIC: ≤ 0.01 µg/mL

## Streptococcus pneumoniae isolate 181 (PBP alleles 1a 2b 2x: 0_0_3, serotype: 15A)
Penicillin G
  MIC: ≤ 0.01 µg/mL
amoxicillin
  MIC: ≤ 0.01 µg/mL

## Streptococcus pneumoniae isolate 182 (PBP alleles 1a 2b 2x: New_New_New, serotype: 15F)
Penicillin G
  MIC: 0.25 µg/mL
amoxicillin
  MIC: 0.125 µg/mL

## Streptococcus pneumoniae isolate 183 (PBP alleles 1a 2b 2x: 0_0_2, serotype: 10A)
Penicillin G
  MIC: 0.03 µg/mL
amoxicillin
  MIC: 0.03 µg/mL

## Streptococcus pneumoniae isolate 184 (PBP alleles 1a 2b 2x: 0_0_New, serotype: 35B)
Penicillin G
  MIC: 0.06 µg/mL
amoxicillin
  MIC: 0.06 µg/mL

## Streptococcus pneumoniae isolate 185 (PBP alleles 1a 2b 2x: 0_0_2, serotype: 35B)
Penicillin G
  MIC: 0.03 µg/mL
amoxicillin
  MIC: ≤ 0.01 µg/mL

## Streptococcus pneumoniae isolate 186 (PBP alleles 1a 2b 2x: 0_6_2, serotype: 16F)
Penicillin G
  MIC: 0.03 µg/mL
amoxicillin
  MIC: 0.03 µg/mL

## Streptococcus pneumoniae isolate 187 (PBP alleles 1a 2b 2x: 67_27_35, serotype: 15A)
Penicillin G
  MIC: 0.25 µg/mL
amoxicillin
  MIC: 0.25 µg/mL

## Streptococcus pneumoniae isolate 188 (PBP alleles 1a 2b 2x: 11_0_0, serotype: 17F)
Penicillin G
  MIC: 0.03 µg/mL
amoxicillin
  MIC: ≤ 0.01 µg/mL

## Streptococcus pneumoniae isolate 189 (PBP alleles 1a 2b 2x: 24_27_New, serotype: 15A)
Penicillin G
  MIC: 0.125 µg/mL
amoxicillin
  MIC: 0.125 µg/mL

## Streptococcus pneumoniae isolate 190 (PBP alleles 1a 2b 2x: 7_1_171, serotype: 23B1)
Penicillin G
  MIC: 0.25 µg/mL
amoxicillin
  MIC: 0.125 µg/mL

## Streptococcus pneumoniae isolate 191 (PBP alleles 1a 2b 2x: 0_0_3, serotype: 35F)
Penicillin G
  MIC: 0.03 µg/mL
amoxicillin
  MIC: ≤ 0.01 µg/mL

## Streptococcus pneumoniae isolate 192 (PBP alleles 1a 2b 2x: 0_1_1, serotype: 23B1)
Penicillin G
  MIC: 0.125 µg/mL
amoxicillin
  MIC: 0.06 µg/mL

## Streptococcus pneumoniae isolate 193 (PBP alleles 1a 2b 2x: 0_0_3, serotype: 35F)
Penicillin G
  MIC: 0.03 µg/mL
amoxicillin
  MIC: ≤ 0.01 µg/mL

## Streptococcus pneumoniae isolate 194 (PBP alleles 1a 2b 2x: 2_0_3, serotype: 7C)
Penicillin G
  MIC: ≤ 0.01 µg/mL
amoxicillin
  MIC: ≤ 0.01 µg/mL

## Streptococcus pneumoniae isolate 195 (PBP alleles 1a 2b 2x: 2_0_2, serotype: 15B/C)
Penicillin G
  MIC: 0.03 µg/mL
amoxicillin
  MIC: 0.03 µg/mL

## Streptococcus pneumoniae isolate 196 (PBP alleles 1a 2b 2x: 1_0_0, serotype: 15A)
Penicillin G
  MIC: ≤ 0.01 µg/mL
amoxicillin
  MIC: ≤ 0.01 µg/mL

## Streptococcus pneumoniae isolate 197 (PBP alleles 1a 2b 2x: 16_13_19, serotype: 19A)
Penicillin G
  MIC: 0.125 µg/mL
amoxicillin
  MIC: 0.125 µg/mL

## Streptococcus pneumoniae isolate 198 (PBP alleles 1a 2b 2x: 7_1_1, serotype: 23B1)
Penicillin G
  MIC: 0.125 µg/mL
amoxicillin
  MIC: 0.125 µg/mL

## Streptococcus pneumoniae isolate 199 (PBP alleles 1a 2b 2x: 23_6_139, serotype: 19F)
Penicillin G
  MIC: 0.06 µg/mL
amoxicillin
  MIC: 0.03 µg/mL

Source: the supplement of paper PMC11055344
